Results: the supplement of paper PMC10498489
Screen size: about 2,300 compounds; about 330 (14%) showed activity.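 How the source made its calls: active = median modified Z-score above 1.96; inactive = 1.96 or below.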 This is a selection; strong and weak results do not stand in their true shares.

test system: HepG2 Srxn1-GFP reporter cells (+30 nM CDDO-Me); assay: Srxn1-GFP intensity median modified Z-score relative to plate median; higher = stronger NRF2 / oxidative stress reporter activation, active = hit call of the paper; details: 10 µM; exposure time: 24h
Outline: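 Per-cell cytoplasmic GFP was measured on confocal images of formaldehyde-fixed, Hoechst-stained HepG2 Srxn1-GFP BAC reporter cells, excluding images with fewer than 100 cells. Before this, the cells (20,000 per well, 96-well plates) were co-exposed for 24 h to compound at 10 μM and an NRF2 activator at 30 nM with ≤0.1% DMSO, in three replicate plates. Each value is the median over replicates of the per-plate modified Z-score of GFP intensity. That score was scaled with 1.4826 × median absolute deviation.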

SMILES	Srxn1-GFP intensity median modified Z-score
C[N+](C)(C)CC(O)CC(=O)O (stereo not drawn) [euspeclibcmpd2119]	inactive: -0.518
CCOc1ccc2nc(S(N)(=O)=O)sc2c1 [euspeclibcmpd779]	inactive: 1.74
CC(=O)Oc1cc(-c2coc3cc(OC(C)=O)c(OC(C)=O)c(OC(C)=O)c3c2=O)cc(OC(C)=O)c1OC(C)=O [euspeclibcmpd2320]	inactive: -0.508
O=C(O)c1ccccc1O [euspeclibcmpd2452]	inactive: -0.566
O=C(O)c1ccccc1O [euspeclibcmpd2439]	inactive: -0.701
O=c1oc2cc(O)ccc2s1 [euspeclibcmpd1146]	active: 5.96
CCOC(=S)SSC(=S)OCC [euspeclibcmpd2159]	inactive: 0.401
O=C1c2ccccc2C(=O)C1c1ccc(Br)cc1 [euspeclibcmpd777]	inactive: -0.247
CC(C)OC(=O)C(C)(C)Oc1ccc(C(=O)c2ccc(Cl)cc2)cc1 [euspeclibcmpd368]	inactive: -0.37
Cc1c(O)c(=O)n(-c2ccccc2)n1C [euspeclibcmpd1750]	inactive: -0.19
O=C(O)CCC(=O)Nc1ccc(S(=O)(=O)N=c2[nH]ccs2)cc1 [euspeclibcmpd428]	inactive: 0.358
N#CCC(=O)NN [euspeclibcmpd1098]	active: 3.08
CC12CCC(=O)N1C(C(=O)NCCCNS(C)(=O)=O)CS2 (stereo not drawn)	active: 2.02
CC(N)CCCC(C)(C)O (stereo not drawn) [euspeclibcmpd1127]	inactive: 0.138
Cc1cc(O)cc(C)c1Cl [euspeclibcmpd58]	inactive: 0.6
Oc1cccc(O)c1 [euspeclibcmpd262]	active: 13.8
O=C(O)C=Cc1ccc(O)c(O)c1 [euspeclibcmpd1336]	inactive: -0.408
CC(C)N=C(N)N=C(N)Nc1ccc(Cl)cc1 [euspeclibcmpd665]	inactive: -0.77
CC1CC(OC(=O)c2ccccc2O)CC(C)(C)C1 (stereo not drawn) [euspeclibcmpd580]	inactive: 0.199
CC1(C)C(=O)C2C[C@@]3(O)C4=CC(=O)O[C@@H](c5ccoc5)[C@]4(C)CCC3[C@](C)(C2=O)[C@H]1CC(=O)O (stereo partly drawn) [euspeclibcmpd1558]	inactive: -0.051
CC[C@@]1(O)CC(=O)c2c(cc3c(O)c4c(O)ccc(O)c4c(O)c3c2O)C1C(=O)OC (stereo partly drawn) [euspeclibcmpd1470]	active: 70.7
O=c1[nH]c(=O)n([C@H]2C[C@H](O)C(CO)O2)cc1I (stereo partly drawn) [euspeclibcmpd2208]	inactive: 0
CCC1CS/C(=N\c2ccc(Cl)c(Cl)c2)N1C(=O)CC1CC2CCC1C2 (stereo not drawn)	inactive: 1.31
C[N+](C)(C)CC(=O)O [euspeclibcmpd512]	inactive: 0.105
OCCN(CCO)c1nc(N2CCCCC2)c2nc(N(CCO)CCO)nc(N3CCCCC3)c2n1 [euspeclibcmpd102]	inactive: -0.597
CCN(CC)CCNC(C(=O)OCCC(C)C)c1ccccc1 (stereo not drawn) [euspeclibcmpd1224]	inactive: 0.369

SMILES	Srxn1-GFP intensity median modified Z-score
Cc1c(-c2cnccn2)ssc1=S [euspeclibcmpd1085]	inactive: -0.63
CC(=O)NS(=O)(=O)c1ccc(N)cc1 [euspeclibcmpd273]	inactive: -0.608
Cc1cn([C@H]2C=C[C@@H](CO)O2)c(=O)[nH]c1=O [euspeclibcmpd472]	inactive: -0.536
CN1C(CCl)Nc2cc(Cl)c(S(N)(=O)=O)cc2S1(=O)=O (stereo not drawn) [euspeclibcmpd880]	inactive: 0.45
OCc1ccccc1O[C@@H]1O[C@H](CO)[C@@H](O)[C@H](O)[C@H]1O [euspeclibcmpd447]	inactive: -0.273
Oc1ccc([C@H]2Oc3cc(O)cc(O)c3C[C@H]2O)cc1 [euspeclibcmpd1689]	inactive: 0.539
CC(=O)CC(c1ccccc1)c1c(O)c2ccccc2oc1=O (stereo not drawn) [euspeclibcmpd321]	active: 5.96
NS(=O)(=O)c1cc2c(cc1Cl)NC(C1CC3C=CC1C3)NS2(=O)=O (stereo not drawn) [euspeclibcmpd561]	inactive: 0.0854
O=C1NS(=O)(=O)c2ccccc21 [euspeclibcmpd2045]	inactive: -0.21
c1ccc2c(CC3=NCCN3)cccc2c1 [euspeclibcmpd204]	inactive: -0.697
CCN(CC)CC(=O)Nc1c(C)cccc1C [euspeclibcmpd339]	inactive: -0.436
COc1ccc(-c2coc3c(O)c(O)c(OC)cc3c2=O)cc1 [euspeclibcmpd1527]	inactive: -0.524
CS(=O)(=O)OCCCCOS(C)(=O)=O [euspeclibcmpd40]	inactive: 1.41
Cc1c(NC(=O)c2cccnc2)c(=O)n(-c2ccccc2)n1C [euspeclibcmpd1132]	inactive: -0.441
NS(=O)(=O)c1cc2c(cc1C(F)(F)F)NCNS2(=O)=O [euspeclibcmpd154]	inactive: -0.214
NC(=O)CCCCC1CCSS1 (stereo not drawn) [euspeclibcmpd1215]	inactive: -0.458
CC1CN(C(=O)CSc2nc3ccc(Br)cc3c3nc(=O)c(-c4ccccc4)nn23)CC(C)O1 (stereo not drawn)	active: 2.28
CCC1(C)OC(=O)N(C)C1=O (stereo not drawn) [euspeclibcmpd785]	inactive: -0.431
NCCCC[C@H](N)C(=O)O [euspeclibcmpd2466]	inactive: -0.424
Cc1cc(O)c2c(c1)C(=O)c1cccc(O)c1C2=O [euspeclibcmpd1712]	active: 4.5
COc1cc2c(N3CCN(C(=O)Nc4ccc(OC(C)C)cc4)CC3)ncnc2cc1OCCCN1CCCCC1 [euspeclibcmpd1281]	inactive: 0.619
CC(C(=O)O)c1ccc(-c2ccccc2)c(F)c1 (stereo not drawn) [euspeclibcmpd133]	inactive: -0.0224
O=c1ccc2cc(O)c(O)cc2o1 [euspeclibcmpd1998]	inactive: -0.574
C[C@H](CCC(=O)NCC(=O)O)[C@H]1CCC2C3C(C[C@H](O)[C@@]21C)[C@@]1(C)CC[C@@H](O)CC1C[C@H]3O (stereo partly drawn) [euspeclibcmpd1671]	inactive: -0.257
Cc1cccc(C)c1NC(=O)C(C)N (stereo not drawn) [euspeclibcmpd2310]	inactive: -0.407
CN(C)C(=O)C(CCN1CCC(O)(c2ccc(Cl)cc2)CC1)(c1ccccc1)c1ccccc1 [euspeclibcmpd977]	inactive: -0.12

SMILES	Srxn1-GFP intensity median modified Z-score
Nc1ccc(S(=O)(=O)N=c2cnc3ccccc3[nH]2)cc1 [euspeclibcmpd2157]	inactive: 0.000648
Cc1cc(C)[nH]c(=NS(=O)(=O)c2ccc(N)cc2)n1 [euspeclibcmpd276]	inactive: -0.664
CC[C@H]1OC(=O)C(C)[C@@H](O[C@H]2C[C@@](C)(OC)[C@@H](O)[C@H](C)O2)[C@H](C)[C@@H](O[C@@H]2O[C@H](C)C[C@H](N(C)C)[C@H]2O)[C@](C)(O)CC(C)C(=NOCOCCOC)C(C)[C@@H](O)[C@]1(C)O (stereo partly drawn) [euspeclibcmpd567]	inactive: -0.00752
C=C(C)[C@@H]1CC[C@]2(CO)CC[C@]3(C)[C@H](CCC4[C@@]5(C)CC[C@H](O)C(C)(C)C5CC[C@]43C)C12 (stereo partly drawn) [euspeclibcmpd1538]	active: 10.7
CC(=O)N1CCCC1C(=O)O (stereo not drawn) [euspeclibcmpd1747]	inactive: -0.236
COc1ccc(/C=C/C(=O)Nc2ccccc2C(=O)O)cc1OC [euspeclibcmpd564]	inactive: 0.903
CC(=O)OC1(C(C)=O)CCC2C3=CC(Cl)=C4CC(=O)C5CC5C4(C)C3CCC21C (stereo not drawn) [euspeclibcmpd1971]	inactive: -0.163
Cc1c(N(C)C)c(=O)n(-c2ccccc2)n1C [euspeclibcmpd1031]	inactive: -0.314
Oc1c(Cl)cc(Cl)c(Cl)c1Cc1c(O)c(Cl)cc(Cl)c1Cl [euspeclibcmpd146]	active: 44.1
C[C@@H]1CC[C@H]2C(C)(C)C3CC12CC[C@@]3(C)O (stereo partly drawn) [euspeclibcmpd1468]	inactive: -0.304
Cc1cc(=O)[nH]c(=S)[nH]1 [euspeclibcmpd196]	inactive: 0
COc1ccccc1OCC(O)CO (stereo not drawn) [euspeclibcmpd142]	inactive: -0.122
Cc1cccc(C)c1OCC(C)N (stereo not drawn) [euspeclibcmpd637]	inactive: -0.792
COC(=O)C[C@H]1C(C)(C)[C@@H](O)C2CC3=C4C=C(OC)O[C@@H](c5ccoc5)[C@]4(C)CCC3[C@@]1(C)C2=O (stereo partly drawn) [euspeclibcmpd1395]	inactive: 1.94
O=C(CCCCCCCC(=O)NCCO)NCCO [euspeclibcmpd1246]	inactive: 0.216
Oc1cc(O)c2c(c1)O[C@H](c1cc(O)c(O)c(O)c1)[C@H](O)C2 [euspeclibcmpd1320]	inactive: -0.555
CN(C(=O)C(Cl)Cl)c1ccc(OC(=O)c2ccco2)cc1 [euspeclibcmpd813]	inactive: 0.185
COc1cc(/C=C/C(N)=O)cc(OC)c1OC [euspeclibcmpd509]	inactive: 0.124
CC(C)(C#N)c1cc(Cn2cncn2)cc(C(C)(C)C#N)c1 [euspeclibcmpd453]	inactive: -0.25
CC(=O)O[C@]1(C)CC[C@@]23CC1C(C)(C)[C@@H]2CC[C@H]3C [euspeclibcmpd1510]	active: 3.58
Oc1c(I)cc(Cl)c2cccnc12 [euspeclibcmpd705]	active: 2.87
CN(C)CCOC(C)(c1ccccc1)c1ccccn1 (stereo not drawn) [euspeclibcmpd106]	inactive: -0.105
C=CCNC(N)=S [euspeclibcmpd1266]	inactive: -0.282
CC(=O)c1ccc2c(c1)N(CCCN(C)C)c1ccccc1S2 [euspeclibcmpd808]	inactive: -0.832
C[N+](C)(C)CCO [euspeclibcmpd2453]	inactive: 0.0198
C[N+](C)(C)CCO [euspeclibcmpd2447]	inactive: -0.414
